Values joined by “and” are separate entries in the source; they are usually repeats but may differ in a detail not shown here. Identical values can stand only once.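 Assay format: 96-well plates, 48-hour exposure. Here, GI50 denotes the concentration required for 50% inhibition of growth. Definition used: TGI = concentration required for complete inhibition of growth.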
test system: NCI-H322M lung; experiment: inhibition of tumour cell growth, NCI panel, 48 h

Row | SMILES | TGI | GI50
1 | CN1C(=O)CC(=O)N1/C(=C/c1ccccc1)c1ccccc1 | > 100 µM | 
2 | C1CCC(N=C2N(C3CCCCC3)C(=NC3CCCCC3)N2C2CCCCC2)CC1 | > 100 µM | 
3 | COC(=O)[C@@H]1[C@@H]2NC(=S)N[C@@]1(C)Oc1ccccc12 | > 100 µM | 
4 | ClCCOCCn1cnc2c(Cl)nc(Cl)nc21 | 26.3 µM | 13.2 µM
5 | O=C1c2cc(O)c(O)cc2O[C@H](c2ccc(O)c(O)c2)[C@H]1O | > 100 µM | 
6 | CCOC(=O)/C(=C/c1ccccn1)C(=O)c1ccccc1 | 31 µM | 
7 | COC1(OC)c2occc2C(=N)c2ccc(=O)oc21 | > 100 µM | 
8 | C[C@@H](CC(=O)OCc1ccccc1)OC1OC(COC(=O)C(C)(C)C)C(OC(=O)C(C)(C)C)C(OC(=O)C(C)(C)C)C1OC(=O)C(C)(C)C (some centres undefined) | > 100 µM | 
9 | COc1cc2nnc3c4cccnc4[nH]c3c2cc1OC | 50 µM and 59.2 µM | 23.4 µM and 20.6 µM
10 | CC(=O)Oc1c(C(=O)[O-])cc(C(C)C)cc1C(C)C.CC(=O)Oc1c(C(=O)[O-])cc(C(C)C)cc1C(C)C.CC(=O)Oc1c(C(=O)[O-])cc(C(C)C)cc1C(C)C.CC(=O)Oc1c(C(=O)[O-])cc(C(C)C)cc1C(C)C.[Cu+2].[Cu+2] | 39.9 µM | 19.9 µM
11 | COCCOC1=C(Cl)C(=O)c2ccccc2C1=O | 29.8 µM | 15.1 µM
12 | COC(CN(C)C(=S)Nc1cccc2ccccc12)OC | > 10 µM | 
13 | Cc1ccc(S(=O)(=O)OC2CC(C(C)(C)C)CCC2c2ccccc2)cc1 (centres undefined) | > 100 µM | 
14 | C=CCC(CCC(C)=O)(C(=O)OCC)C(=O)OCC | > 100 µM | 
15 | O=C(O)CN(CCN(CC(=O)O)CC(=O)O)CC(=O)O.[Mn+2] | > 100 µM | > 100 µM
16 | NCCOc1cccc(C2(N3CCCCC3)CCCCC2)c1 | > 100 µM | 
17 | CC(C)(CN1CCCCC1)C(=O)/C=C/c1ccc(Br)cc1 | 12.8 µM | 
18 | CCN1CCC(O)(c2ccc([N+](=O)[O-])cc2)C(C(=O)c2ccc([N+](=O)[O-])cc2)C1 (centres undefined) | > 100 µM | 
19 | N#Cc1ccccc1OCCOc1ccccc1C#N | > 100 µM | 
20 | CCOc1cnc(C(O)(c2ccccc2)c2ccccc2)o1 | > 100 µM | 
21 | O=C1C(Cl)N(c2ccccc2Cl)C1c1c[nH]c2ccccc12 (centres undefined) | > 100 µM | 
22 | O=C1CC(c2ccc(Cl)cc2)=Nc2ccccc2N1 | > 100 µM | 
23 | CN1CCN(c2c(F)cc(NC3=C(Cl)C(=O)c4ncccc4C3=O)cc2F)CC1 | 30.4 µM | 16.2 µM
24 | O=C(O)CCCc1ccc2c(c1)CC1(C2)Cc2cc3c(cc2C1)CCCC3 | 69 µM | 
25 | COC(=O)C1CCC(=O)N1CN(C(C)=O)c1cccc(O)c1 (centres undefined) | > 100 µM | 

Row | SMILES | TGI | GI50
26 | C(=Nc1nc(SCc2ccccc2)nc2[nH]ncc12)c1cccs1 | > 100 µM | 64.2 µM
27 | CSC(=O)/C=C1\SS/C(=C\C(=O)SC)S1 | 26.3 µM | 
28 | O=C1CC(O)c2cscc21 (centres undefined) | > 100 µM | 
29 | O=C(c1ccccc1)C1(Br)S(=O)(=O)OCCOS1(=O)=O | > 100 µM | 
30 | COc1cc(-c2nccc3[nH]c(-c4ccc5cc[nH]c5c4)nc23)cc(OC)c1OC | 11.7 µM | < 0.01 µM
31 | Cc1nc2sc3cccc(Cl)c3n2c(=O)c1N=Nc1ccc(Cl)cc1 | > 100 µM | 
32 | O=C1c2ccccc2N2OC3(N4CCOCC4)CCCC3C12c1ccccc1 (centres undefined) | > 100 µM | 
33 | NS(=O)(=O)c1nnc(NC(=S)NC(=O)Nc2ccc(Cl)c(Cl)c2)s1 | 56.9 µM | 
34 | Cc1ccc(OCC2OC(n3cnc4c(Cl)nc(Nc5cc(Cl)cc(Cl)c5)nc43)CC2Oc2ccc(C)cc2)cc1 (centres undefined) | > 100 µM | 
35 | COC(=O)/C=C/c1ccc(OP(=O)(O)O)c(OC)c1 | > 100 µM | 
36 | CCOC(=O)c1c2c(n(-c3ccc(C)cc3)c1C)-c1ccccc1C(=O)C2(C(=O)OCC)C(=O)OCC | > 100 µM | 
37 | Clc1ccc(C=Nc2ccc(Oc3ccc(Cl)cc3)c(Cl)c2)cc1 | 61.5 µM | 
38 | COC(=O)[C@H](Cc1ccccc1)NC(=O)c1ccc(CNC(=O)/C=C/c2csc(-c3ccccc3)n2)cc1 | 47.1 µM | 
39 | N#Cc1sc2nc3ccccc3n2c1N | > 100 µM | 
40 | CCOC(=O)C1S(=O)(=O)OCCOS1(=O)=O | > 100 µM | 
41 | O=C(c1cccs1)c1c(C(F)(F)F)n([O-])c2cc(Cl)c(Cl)cc2[n+]1=O | 3.38 µM | 1.9 µM
42 | CCN(/C=C1/C(=O)C(c2ccccc2)N(c2ccccc2)C1=O)CC (centres undefined) | > 10 µM | 
43 | COc1ccc2ccccc2c1C1=NC(C)(C)CO1 | > 100 µM | 
44 | COC(=O)[C@@H]1CO[C@H](C(C)(C)C)N1C(=O)N1C=CC(=O)C[C@H]1C | > 100 µM | 
45 | CC(N)(CC(O)(C(F)(F)Cl)C(F)(F)Cl)C(=O)O (centres undefined) | > 10 µM | 
46 | CCOC(=O)c1cn(CC)c(=O)n2c1nc1ccccc12 | > 100 µM | 
47 | CC[C@H](C)[C@H](NC(=O)[C@H]1CCCCN1C)C(=O)N(C)[C@H](C[C@@H](OC(C)=O)c1nc(C(=O)NC23CC(C(=O)OC)(C2)C3)cs1)C(C)C | > 32.5 µM | 0.00476 µM and 0.026 µM
48 | COc1ccc2nc3cc(Cl)ccc3c(NC(C)CCCN(CCCl)CCCl)c2c1 (centres undefined) | 5.8 µM | 
49 | NC1=NC(Cn2nc(-c3ccccc3)c3ccccc3c2=O)=NNC(=O)N1 | > 100 µM | 
50 | O=c1cc(Nc2cccc(O)c2)[nH]c(=O)[nH]1 | > 100 µM | 

Row | SMILES | TGI | GI50
51 | Fc1ccc(NC(c2ccc(F)cc2)C2CCN(CCCCc3ccccc3)CC2)cc1 (centres undefined) | 4.51 µM | 1.83 µM
52 | CCN(CC)CCNc1ccc([N+](=O)[O-])c2nc3ccc(OC)cc3c(NCCN(CC)CC)c12 | 3.85 µM | 
53 | O=C(NCCc1ccccc1)C1C(=O)C(=O)N(CCc2ccccc2)C1=O (centres undefined) | > 100 µM | 
54 | COc1ccc(OC)c2sc(N3C(=O)/C(=C/c4cccc(Oc5ccccc5)c4)N=C3c3ccccc3)nc12 | > 100 µM | 
55 | Cc1cc(Cl)nc(N(CCNc2ccnc3cc(Cl)ccc23)Cc2ccco2)n1 | 4.75 µM | 2 µM
56 | CNCc1ccc(-c2cc(-c3nc(-c4ccc(S(=O)(=O)C(C)C)cc4)cnc3N)on2)cc1 | 15.1 µM | 0.482 µM
57 | Cc1c(C)c(S(=O)(=O)N(CCCCN)OCCCN)c(C)c2c1OC(C)(C)CC2 | 30.9 µM | 
58 | C[C@H](C(=O)O)C(=O)NC(=O)N(Cc1ccccc1)N=O | > 100 µM | 
59 | CN1CCOC(C(NC(=O)c2ccccc2)c2ccccc2)C1=O (centres undefined) | > 100 µM | 
60 | O=C(c1ccc(Cl)cc1)C1OC12C(=O)Nc1c(Cl)cc(Cl)cc12 (centres undefined) | > 100 µM | 
61 | O=[N+]([O-])c1ccc(/C=N/Nc2nc3ccccc3[nH]2)o1 | 63.6 µM | 
62 | C=C1CC[C@@H](CCC2CCC3(OC2)O[C@]2(O)CC[C@@]3(C)OC2(C)C)C(C)(C)[C@H]1C/C=C1\CCOC1=O (some centres undefined) | > 100 µM | 
63 | c1cc(-c2ccc(-c3ccsc3)s2)cs1 | > 100 µM | 
64 | Nc1nc(=S)c2c(ncn2CCO)[nH]1 | > 100 µM | 
65 | Cc1ccc(S[C@@](C=O)(NC(=O)OCc2ccccc2)C(F)(F)F)cc1 | > 100 µM | 
66 | O=S(=O)(/N=C(\NO)Nc1ccc(Cl)cc1)c1cc(C(F)(F)F)cc(C(F)(F)F)c1 | 33.4 µM | 
67 | COC12C(COC(=O)NCCO)C3=C(C(=O)C(C)=C(N)C3=O)N1CC1NC12 (centres undefined) | 225 µM | 75.7 µM
68 | CCCCCC/C=C\CCCCCCCCC(=O)c1cccc(OC)c1OC | > 100 µM | 
69 | OCCCCC#Cc1ccccc1C#Cc1cccc(C(F)(F)F)c1 | 30.6 µM | 16.4 µM
70 | c1ccc(C(c2ccccc2)c2ccccn2)cc1 | > 100 µM | 
71 | COC(=O)c1cc(S(=O)(=O)NC2=NCC(C)NN2)c(S)cc1Cl (centres undefined) | > 100 µM | 
72 | [B]C(=O)NC(CC(C)C)C(=O)NCC(=O)NC1c2ccsc2C(=O)C1O (centres undefined) (tested in a mixture with another compound) | > 100 µM | 
73 | N#Cc1c(NC(=O)C(F)(F)F)sc2c3c(=O)c4ccccc4c(=O)c=3oc3ccccc3c12 | 42.4 µM | 
74 | COc1cc2nc(Cl)nc(NS(=O)(=O)c3cc4ccccc4s3)c2cc1OC | 54.1 µM | 

Reference: PubChem BioAssay (NCI)
